The values below come from ChEMBL document CHEMBL1201862, “PubChem BioAssay data set” (2004).

Structures are written as SMILES.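 Results reflect a 48-hour exposure of cells in 96-well plates to compound at five concentrations. Here, GI50 denotes the concentration required for 50% inhibition of growth.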 The source made the active and inactive calls. No stated cut-off is given here; in the data, active = GI50 up to about 1.1 µM and inactive = higher. A value given as a limit tells only on which side of the number the result lay.

This test deals with NCI-H322M. Put plainly: growth of human tumour cells (NCI), 48 h.
With `NP(=O)(OCC1=CC(=O)c2ccccc2C1=O)N(CCBr)CCBr` (configuration not stated), the GI50 is inactive: 4.68 µM.

With `Cc1ccc(S(=O)(=O)NC(=O)Nc2nnc(S(N)(=O)=O)s2)cc1`, the GI50 is inactive: > 100 µM. As for `Oc1ccc(NCc2cc(O)ccc2O)cc1`, the figure is inactive: 16.2 µM; as for `CCC1C(C#N)=C(N)OC2=C1C(=O)CC(C)(C)C2` (configuration not stated), inactive: > 100 µM.

With `C[C@]12CC[C@@H]3c4ccc(O)cc4CC[C@H]3[C@@H]1C/C(=C\c1ccncc1)C2=O`, the GI50 is inactive: 33 µM. For `COC(=O)c1cc2c(n1S(=O)(=O)c1ccc(C)cc1)C(=O)C(=O)c1[nH]cc(C(=O)OCc3ccccc3)c1-2` the value was active: 0.175 µM. As for `COc1ccc(/C=C/C=C2C(=O)NC(=S)NC2=O)cc1`, the figure is inactive: 18.8 µM; as for `Cc1cc2c(cc1C)[n+]([O-])c(C(F)(F)F)c(C(=O)c1ccccc1)[n+]2[O-]`, inactive: 4.7 µM; as for `CC(=O)Nc1ccc(S(=O)(=O)Nc2nc(-c3ccc(Cl)cc3)cc(N3N=C(c4ccc(Br)cc4)CC3c3ccccc3)n2)cc1` (configuration not stated), inactive: 12.2 µM. As for `Cc1ccccc1NC(=O)C(=O)C(C#N)c1ccccc1C` (configuration not stated), the figure is inactive: > 100 µM; as for `NC(CSS(=O)(=O)c1ccccc1)C(=O)O` (configuration not stated), inactive: > 10 µM; as for `Cc1nc(C)c(C(=O)NNC(N)=S)cc1C(=O)NNC(N)=S`, inactive: > 100 µM.

Take `CC(C)=CCC/C(C)=C/Cc1c(O)ccc2c1[nH]c1cc(O)c(C)cc12`: the GI50 was inactive: > 25 µM. For `COc1ccc(C2SC(=N)Nc3c2c(C)nn3C(=O)c2ccncc2)cc1` (configuration not stated) the value was inactive: > 100 µM.

For `COc1ccc([C@@]23CCC(=O)C[C@@H]2N(C)CC3)cc1OC`, the GI50 was inactive: > 100 µM. On to `C=CC[C@H](O)[C@@](NC(=O)OCc1ccccc1)(Sc1ccc(C)cc1)C(F)(F)F`, for which the GI50 is inactive: 66.5 µM. As for `O=C(c1ccccc1)N1OCCC1Nc1ccc(Br)cc1` (configuration not stated), the figure is inactive: > 10 µM; as for `Cc1cc(NS(=O)(=O)c2ccc(NC(=O)c3cccn4c(=O)c5ccccc5nc34)cc2)no1`, inactive: > 100 µM; as for `N#CC(C#N)=C/C=C(\Sc1c(Cl)c(Cl)nc(Cl)c1Cl)c1ccc(Cl)cc1`, inactive: 20.8 µM. For `CC(C)(C)OC(=O)N1C[C@H](CC(=O)OCc2ccccc2)C[C@H]1C(=O)OCC(Cl)(Cl)Cl` the value was inactive: > 50 µM. As for `CC1CCCC(C(O)CC2CC(=O)N(c3ccccc3)C(=O)C2)C1=O` (configuration not stated), the figure is inactive: > 100 µM.

For the compound `Cc1ccc([N+](=O)[O-])cc1NC(=O)/C(=N/NC(=S)NN)C1SC(=S)NC1=O` (configuration not stated), the GI50 is inactive: > 100 µM. For `O=c1c2cc(Br)ccc2oc2nc3n(c(=O)c12)CCCS3` the value was inactive: > 100 µM; for `C=C1C(O)C23CCC4C(C(=O)O)(C(=O)O)CC(OC5OC(CO)C(O)C(OC(=O)CCc6ccccc6)C5NC(=O)CC(C)C)CC4(C)C2CCC1(O)C3` (configuration not stated), inactive: > 100 µM; for `O=C1C(/C=C/c2ccc(Cl)cc2)=NNC2N1N=C1NC(=O)C3(NN12)c1ccccc1-c1ccccc13` (configuration not stated), inactive: > 100 µM. As for `C=CC[C@H]1O[Si](C(C)(C)C)(C(C)(C)C)[C@H](C)[C@H]1C`, the figure is inactive: > 100 µM. As for `CCOC(=O)C(Cc1ccccc1)NC(=O)c1ccc(/N=N/N(C)C)cc1` (configuration not stated), the figure is inactive: > 100 µM; as for `CO/C(=N\N=C\c1ccc(C(F)(F)F)cc1)c1ccncc1`, inactive: > 10 µM; as for `CCCCCC/C=C1\CCC(CN(C)C)C1=O` (configuration not stated), inactive: 18.2 µM.

As for `CC(=O)OC12C(C)=C(C)C(=O)N1c1ccccc1N2C(C)=O` (configuration not stated), the GI50 is inactive: > 100 µM. For `O=C(C/N=C(\CN(c1ccccc1)c1ccccc1)Oc1c(Cl)cc(Cl)cc1Cl)N1c2ccccc2Sc2ccccc21` the value was inactive: > 100 µM. For `CCn1c(-c2cc3ccccc3cc2OC(C)=O)n[nH]c1=S` the value was inactive: 32.5 µM; for `COc1cc2c(cc1OS(C)(=O)=O)N=C[C@@H]1CCCN1C2=O`, inactive: > 100 µM. As for `CN(C)CCCN1c2ccccc2Sc2cnccc21`, the figure is inactive: > 100 µM; as for `Cc1cc(C)c2c(c1)CC1(Cc3ccc(C)c(C)c3C1=O)C2=O` (configuration not stated), inactive: > 100 µM. Take `[N-]=[N+]=NC1C2CC3CC(C2)CC1C3` (configuration not stated): the GI50 was inactive: > 100 µM.

`Cc1cccc(C2=NC(C)(C)C(C)(C)N=C2c2cccc(C)n2)n1`: the GI50 was inactive: > 100 µM. `CCOC(=O)c1ccc(N(C)Cc2cnc3nc(N)nc(N)c3n2)cc1`: the GI50 was inactive: 26.5 µM. For `O=c1cc(N=P(c2ccccc2)(c2ccccc2)c2ccccc2)n(-c2ccccc2)c(=O)n1-c1ccccc1` the value was inactive: 19.1 µM; for `O=C1/C(=C\c2cccc(Oc3ccccc3)c2)SC(c2ccccc2)N1c1ccccc1Cl` (configuration not stated), inactive: 46.3 µM; for `c1ccc2cc3[s+]snc3cc2c1`, inactive: > 100 µM. Take `CC1(c2nc3ccccc3[nH]2)CCC(C(=O)O)C(C)(C)O1` (configuration not stated): the GI50 was inactive: > 100 µM. For `CNC1=Nc2ccc(Cl)cc2C(OP(=O)(N2CCOCC2)N2CCOCC2)=NC1` the value was inactive: > 100 µM; for `CC(Oc1ccccc1Cl)C(=O)NN1C(=O)CC(=O)N(c2ccc(Cl)cc2)C1=S` (configuration not stated), inactive: 37.6 µM. With `Oc1cc(O)c2c(c1)OC(c1ccc(O)c(O)c1)C(OC1(c3cc(O)c(O)c(O)c3)Oc3cc(O)cc(O)c3C(O)C1O)C2` (configuration not stated), the GI50 is inactive: 43.1 µM. For `O=C(NCCCCN(CCCNC(=O)C(F)(F)F)Cc1ccc2ccccc2c1)C(F)(F)F` the value was inactive: 18.3 µM; for `O=C(Nc1ccccc1)c1cc(S(=O)(=O)N2CCNNC2=O)c(S)cc1Cl`, inactive: 32 µM; for `CCNCC(O)c1ccc(N)c([N+](=O)[O-])c1` (configuration not stated), inactive: > 100 µM. As for `COc1cc2oc3cc(=O)cc4oc(-c5ccccc5)cc(c2c2c1CCC(c1ccccc1)O2)c43` (configuration not stated), the GI50 is inactive: > 100 µM.

For the compound `CCN1C(=O)C(=CN)C(=O)N(CC)C1=O`, the GI50 was inactive: > 100 µM. As for `Cc1ccc(/C=C2\CN(C)CC3C(c4ccc(C)cc4)=C(C#N)C(=O)NC23)cc1` (configuration not stated), the figure is inactive: > 50 µM; as for `COc1ccc(-c2c(-c3ccc(OC)cc3)n3c(=O)n(C)c(=O)n23)cc1`, inactive: > 100 µM. As to `O=C1c2ccccc2C(=O)c2c(NCCNC(=O)C3CCCN3)ccc(NCCNC(=O)C3CCCN3)c21` (configuration not stated), the GI50 is active: < 0.01 µM. For `C=CCn1c(-c2ccc(/N=N/Nc3ccc(-c4n[nH]c(=S)n4CC=C)cc3)cc2)n[nH]c1=S` the value was inactive: 4.41 µM; for `C=CCN(c1cc(OC)c2c(c1[N+](=O)[O-])C(C)(SC)C(=O)N2)S(C)(=O)=O` (configuration not stated), inactive: 97.3 µM.

Take `CCC(C)[C@H](NC(=O)[C@H](Cc1ccccc1)NC(=O)N(CC)c1ccccc1)C(=O)N[C@@H](CC(C)C)C(=O)OC` (some centres not stated): the GI50 was inactive: 45.4 µM. For `COC(=O)C1=C(C[S+]([O-])c2ccc([N+](=O)[O-])cc2[N+](=O)[O-])C2C=CC1C2` (configuration not stated) the value was inactive: > 100 µM; for `COCc1nc2c(OC)c(-c3nc4ccc(N5CCN(C)CC5)nc4[nH]3)cc(OC)c2n1C`, inactive: 17.8 µM; for `COc1cc2c(cc1OCCCC(=O)Nc1cc(C(=O)Nc3cc(C(=O)Nc4cc(C(=O)NCCCN(C)C)n(C)c4)n(C)c3)n(C)c1)N=C[C@@H]1CCCN1C2=O`, inactive: 13.9 µM. For `N#CCc1nc2c(s1)C(=O)c1ccccc1C2=O` the value was inactive: 23.2 µM; for `Cc1nc2c(n1CCO)C(=O)c1ccccc1C2=O`, inactive: 34.4 µM; for `CCCCCC/C=C1\CCC(CN2CCCC2)C1=O` (configuration not stated), inactive: 19.7 µM. As for `COc1cc(C(N)=O)cc(NC(=O)/C=C/c2ccccc2)c1OC`, the GI50 is inactive: 35.2 µM. For `CC1=NNC(=O)C1C1(C(=O)O)CC(c2c[nH]c3ccccc23)=NC(=S)N1` (configuration not stated) the value was inactive: 55.8 µM; for `COc1ccc2c(c1)C1Oc3ccccc3CC1(O)CO2` (configuration not stated), inactive: > 100 µM; for `CCCCn1c(C)c(C)c2c1NN=C(C#N)S2(=O)=O`, inactive: > 100 µM. As for `CCOC(=O)C1=C(c2ccccc2)NC(c2ccccc2)=C(C(=O)OCC)c2c1c(=O)cc[nH]c2=O`, the figure is inactive: > 100 µM.

For `FC(F)(F)C1(c2ccccc2)SCc2nc3ccccc3n21` (configuration not stated), the GI50 is inactive: > 100 µM. As for `CC(C)C1SCc2nc3ccccc3n21` (configuration not stated), the figure is inactive: > 100 µM; as for `CCOC(=O)C(C)(C)Oc1ccc2c(-c3ccc(Cl)cc3)cc(=O)oc2c1`, inactive: > 100 µM. For `CCOC(=O)C(=O)/C(=C\NC(=S)Nc1ccccc1Cl)C(=O)OCC` the value was inactive: > 100 µM; for `C#C[C@]1(O)CC[C@H]2[C@@H]3CCC4=C/C(=N\OCCN5CCCCC5)CC[C@]4(C)[C@H]3CC[C@@]21C`, inactive: 11.7 µM.

In the case of `CCC(C)C(Nc1c2ccccc2nc2c(C(=O)NCCN(C)C)cccc12)C(=O)O` (configuration not stated), the GI50 is inactive: 12.9 µM. As for `COc1ccc(N(C(=O)NCCO)c2ccccc2)cc1`, the figure is inactive: > 100 µM; as for `NC(=O)N/C=C1\C(=O)Oc2ccccc2C1=O`, inactive: 75.3 µM; as for `CN1C(=O)N(C)C(N2CCCC2)c2c1nc1ccccn1c2=O` (configuration not stated), inactive: 91.2 µM. For `COC(=O)C1=CON2C3CC4CC(C3)CC(C4)C12C` (configuration not stated) the value was inactive: > 100 µM; for `CCCCCCCCCCCCCCCCCCOCC(CO[PH](=O)O)OCCCCCCCCCCCCCCCCCC` (configuration not stated), inactive: > 50 µM; for `CC(C)Cc1cc(CCC(=O)Nc2ccccc2[N+](=O)[O-])nc(NC#N)n1`, inactive: > 100 µM. Take `O=C(N/N=C/c1cc(Cl)cc(Cl)c1O)c1ccncc1`: the GI50 was inactive: > 100 µM.

Consider `O=C(/C=C/c1ccc[nH]1)c1ccccc1`, for which the GI50 is inactive: > 100 µM.

For `COC(=O)C(Cc1cc(OC)c(OC)c(OC)c1)c1ccc(OC)cc1` (configuration not stated), the GI50 is inactive: > 100 µM.
